Reference: the supplement of paper PMC3334620
The full ranking holds about 33,000 sequences; the median of “E-score (-0.5 to 0.5)” is about -0.012, and the highest 2% start at about 0.27. The list shows a part of the results.

What follows are sequences tested against T1, Vhr1 (UniProt P40522) (assay: PBM E-score (8-mer binding enrichment) (E-score (-0.5 to 0.5)); higher = stronger / more preferred TF binding; most listed sequences are background and not binding sites). Settings: protein concentration: 200 nM; construct: GST-full length.
T1 sequence: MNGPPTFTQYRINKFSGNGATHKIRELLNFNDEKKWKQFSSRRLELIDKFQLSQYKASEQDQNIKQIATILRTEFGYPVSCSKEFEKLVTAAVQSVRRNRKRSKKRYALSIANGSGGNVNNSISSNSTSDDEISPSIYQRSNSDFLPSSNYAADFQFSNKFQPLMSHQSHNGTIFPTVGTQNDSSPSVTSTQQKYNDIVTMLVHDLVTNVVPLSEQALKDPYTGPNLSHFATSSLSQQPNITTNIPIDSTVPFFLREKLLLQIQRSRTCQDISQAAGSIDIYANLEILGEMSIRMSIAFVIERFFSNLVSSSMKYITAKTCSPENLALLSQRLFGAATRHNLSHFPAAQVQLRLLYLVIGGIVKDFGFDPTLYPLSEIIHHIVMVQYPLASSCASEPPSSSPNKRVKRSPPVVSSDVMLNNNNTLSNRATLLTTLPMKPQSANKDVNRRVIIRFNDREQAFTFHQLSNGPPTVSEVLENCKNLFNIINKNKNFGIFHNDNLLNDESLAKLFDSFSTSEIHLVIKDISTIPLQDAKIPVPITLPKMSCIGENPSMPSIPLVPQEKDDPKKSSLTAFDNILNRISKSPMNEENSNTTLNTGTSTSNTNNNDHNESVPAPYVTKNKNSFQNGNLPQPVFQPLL
Summary of the method: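 E-scores (a modified Wilcoxon-Mann-Whitney statistic) were assigned by the Universal PBM Analysis Suite to every ungapped eight-base word pooled with its reverse complement. The input came from universal all-10-mer Agilent arrays made double-stranded by primer extension and probed with GST-tagged yeast transcription factors at about 100-200 nM. Fluorescent anti-GST detected bound protein, and masliner normalised the scans.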

Sequence	PBM E-score
AAGCGGCA	-0.0839
GAAGCAAA	-0.215
AAGTTGCA	-0.173
CCGCGCGA	0.22
GTTATATA	0.245
TGTACGAA	0.164
CTCGAGAC	0.154
ATCAACTC	0.0592
CGGGGCGA	0.207
AGTACGAT	0.242
CAGTAGGC	-0.0769
AACCCAAG	-0.0298
CACTTAAC	-0.11
ACCTCCGT	0.00733
GTACGTTA	0.0729
ACAATCAG	0.0835
GGGTCTTA	0.0577
CACGGCAC	-0.186
CTTGTGGC	0.0383
ATTATAAT	0.0549
GGGGCCCC	0.046
CTTCCGAC	0.0483

Sequence	PBM E-score
GTTTCGTA	-0.0415
ACCAACTC	0.0754
ACGCCAGT	0.00194
CTTATACC	-0.0429
AGTCTAAA	-0.194
CCAGAAAC	0.0129
AAAGCAGG	-0.0878
GCATCCCA	-0.098
GGTTGGTA	0.0645
CATGGGGG	-0.0184
TGCCGGCA	-0.0519
CAGCGCGA	-0.178
CGCTACCG	-0.218
AGCATAGC	-0.0351
GGTCTCTA	-0.212
GGAGTAAC	0.0988
AGCGATCA	-0.0576
AAACGGGA	0.0481
AAAAATCG	-0.309
AAGCTCCT	-0.222
AAGTTCCG	-0.15
GTGCAGGA	-0.00089

Sequence	PBM E-score
TACTGAGA	0.0431
ACTTCTTA	-0.173
GCCCCGAA	-0.0782
CTATGATA	0.203
CAGCTCTA	-0.217
GGTGTACA	0.0547
CTAAAGTA	-0.184
AACGCCTC	-0.301
CCAGTAAC	0.0345
ATTGCCGA	-0.0606
AGCCTGCA	0.116
CTATATAG	0.181
CCAATTTA	0.0832
AGAATGGA	-0.0239
CTTCCCCA	-0.00541
AACGACCT	0.0957
CTGTGTGA	0.306
CATTGCGG	0.178
TTCATGAA	-0.0114
GCGTGTGA	0.104
CGCTTATC	0.0886
ACCCGTAG	-0.0736

Sequence	PBM E-score
ACAACCTC	-0.221
ATCGCAAG	0.218
CAGGGGCG	0.301
AGGGGCTC	-0.218
TACCCTCA	-0.0115
GCCCAGTA	-0.156
AAGGTACC	-0.208
GTTACAAA	0.0546
CCAGCGCA	-0.139
ACTTGTAC	0.0588
CCTCTTCC	-0.215
GACGAACC	-0.141
ATGGTAGC	0.0267
GAGGCACA	0.00806
AGGAGGCG	-0.207
TAAGCGTA	-0.173
CGCGGTTC	0.161
TGACCCCA	0.11
GGCTAGCC	-0.274
ACGGGCTG	0.043
